The whole screen tested about 390,000 compounds, of which about 4,000 (1%) were called active. The inconclusive results got no clear call from the source; some entries with a clear call stand among them for comparison. Calls come from the whole dose curve; as a rule, active = well fitted inhibition curve with a large enough effect; inconclusive = small, poorly fitted or top-dose-only effect; inactive = no such curve, though single readings can be large or run the other way. Where the call is inconclusive, the potency comes from a doubtful curve fit.
target: Thioredoxin reductase 1, cytoplasmic (Rattus norvegicus) (UniProt O89049); test: qHTS Assay for Inhibitors of Mammalian Selenoprotein Thioredoxin Reductase 1 (TrxR1): qHTS; conditions: recombinant rTrxR1, NADPH fluorescence consumption, selenite substrate; series mostly up to 114 µM; activity change, negative = inhibition: at the top concentration; note: nearly all actives have a fitted effect of over 65% in size
UniProt O89049, sequence (O89049 whole entry, looked up): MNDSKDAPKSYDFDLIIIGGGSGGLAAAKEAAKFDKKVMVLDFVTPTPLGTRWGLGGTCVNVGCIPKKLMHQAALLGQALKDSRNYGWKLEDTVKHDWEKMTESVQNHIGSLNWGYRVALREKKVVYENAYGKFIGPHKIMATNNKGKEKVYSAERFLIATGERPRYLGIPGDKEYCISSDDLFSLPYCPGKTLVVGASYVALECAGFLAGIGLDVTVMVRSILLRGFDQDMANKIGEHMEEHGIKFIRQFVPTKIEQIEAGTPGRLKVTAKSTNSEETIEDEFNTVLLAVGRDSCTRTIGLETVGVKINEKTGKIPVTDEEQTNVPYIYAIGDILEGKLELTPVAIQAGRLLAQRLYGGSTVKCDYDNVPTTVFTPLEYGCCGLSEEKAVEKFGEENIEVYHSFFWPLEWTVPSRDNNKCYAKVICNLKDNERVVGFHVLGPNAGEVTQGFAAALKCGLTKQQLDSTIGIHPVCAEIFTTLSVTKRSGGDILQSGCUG
In short: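 Rat TrxR1 (90 nM in the dispensed reagent) was pre-reduced with 400 uM NADPH for 5 min at room temperature, then incubated with compound for 15 min. After 400 uM selenite was added, NADPH fluorescence (Ex 340/Em 450 nm) was followed for 8 min.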
% is set by controls: 0 for no effect and ±100 for the full control effect; potency is the fitted concentration of half-maximal effect; tags give direction and shape of the fitted curve.

Row | SMILES | Potency | activity change, negative = inhibition
1 | CCOC(=O)C1CCN(C(c2ccc(SC)cc2)c2c(O)cc(C)n(Cc3ccco3)c2=O)CC1 (stereo unspecified) | inconclusive: 22.4 µM [inhibitor, partial curve, poor fit] | 
2 | CCC(=O)Nc1ccc(OC)cc1OC |  | inactive: -1.89%
3 | COc1ccc(CCNC(=O)C/C(C)=N/NC(=O)c2cnccn2)cc1 | inconclusive: 70.8 µM [inhibitor, partial curve] | 
4 | NS(=O)(=O)c1ccc(NC(=O)CN2CCCN(S(=O)(=O)c3ccc(F)cc3)CC2)cc1 | inconclusive: 10 µM [inhibitor, partial curve] | 
5 | O=C(Nc1ccc(C(=O)NC2CCCCC2)cc1)c1cccnc1 |  | inactive: 15.3% [at 57.1 µM]
6 | Cc1cc(S(=O)(=O)ON2C(=O)c3ccccc3C2=O)ccc1F | inconclusive: 3.98 µM [inhibitor, full curve] | 
7 | CSc1nc(-c2ccco2)nn1C(=O)CCc1ccccc1 | inconclusive: 25.1 µM [inhibitor, single point] | 
8 | CCOC(=O)c1sc(NCc2ccco2)c(-c2nc3ccccc3s2)c1N | inconclusive: 100 µM [inhibitor, single point] | 
9 | NC(=S)N=Nc1ccc(O)cc1 | inconclusive: 28.2 µM [inhibitor, full curve, poor fit] | 
10 | C1CCC(CNc2c3c(nc4nnnn24)CCCC3)CC1 | inconclusive: 4.47 µM [inhibitor, partial curve] | 
11 | COCc1cc(=O)n2[nH]c(-c3ccsc3-n3c(C)ccc3C)cc2n1 | inconclusive: 6.31 µM [inhibitor, full curve, poor fit] | 
12 | CCN(CC)c1ccc(C2C(C(N)=O)=C(C)Nc3nc(SCc4ccccc4Cl)nn32)cc1 (stereo unspecified) |  | inactive: 17.4%
13 | Nc1ccc(Nc2ccccc2N)cc1 | inconclusive: 11.2 µM [inhibitor, partial curve, poor fit] | 
14 | COc1ccccc1-c1ccc(SCc2ccccc2F)nn1 |  | inactive: 6.92% [at 57.1 µM]
15 | COC(=O)[C@H](CCSC)NC(=O)c1cccnc1SC |  | inactive: 18.9%
16 | Cc1ccc2nc(C(O)C(O)c3nc4ccc(C)cc4[nH]3)[nH]c2c1 (stereo unspecified) |  | inactive: 0.805% [at 57.1 µM]
17 | CCS(=O)(=O)Nc1ccc(C2=NN(S(=O)(=O)c3ccc(F)cc3)C(c3ccco3)C2)cc1 (stereo unspecified) | inconclusive: 12.6 µM [inhibitor, partial curve, poor fit] | 
18 | FC(F)(F)c1cc(-c2ccco2)nc2ncnn12 | inconclusive: 89.1 µM [inhibitor, single point] | 
19 | COc1ccc(NC(=O)CN(C)C(=O)c2cc(-c3ccco3)nc3ccccc23)cc1 | inconclusive: 44.7 µM [inhibitor, partial curve, poor fit] | 
20 | CCOc1ccccc1N1C(=O)CC(N(O)c2ccccc2)C1=O (stereo unspecified) | inconclusive: 89.1 µM [inhibitor, single point] | 
21 | COc1ccc(OCC(=O)Nc2c(C(=O)N(CCN(C)C)Cc3ccco3)oc3ccccc23)cc1 | inconclusive: 79.4 µM [inhibitor, partial curve, poor fit] | 
22 | COc1ccc(C(=O)N(C)CCCC2CCCC2)cc1OC1CCN(C(C)C)CC1 | inconclusive: 89.1 µM [inhibitor, partial curve, poor fit] | 
23 | O=C1/C(=C\c2ccco2)NC(=S)N1c1ccccc1 | inconclusive: 44.7 µM [inhibitor, partial curve] | 
24 | CCN(CC)CCn1c(NCc2ccc(C)o2)nc2ccccc21 |  | inactive: -0.836%
25 | CCCCC(CCC(=O)Nc1ccn(-c2ccccc2)n1)C(=O)O (stereo unspecified) |  | inactive: 28.1%
26 | CCN1C(=O)c2ccccc2S(=O)(=O)c2ccc(C(=O)NCc3ccccc3OC)cc21 |  | inactive: 29.6%

Row | SMILES | Potency | activity change, negative = inhibition
27 | Cc1ccc(-n2nc(C)c3c(C(=O)NCCc4ccc(S(N)(=O)=O)cc4)cc(C)nc32)cc1 |  | inactive: 19.7%
28 | CN(C)c1ncc(C2=C(Cl)C(=O)C(N3CCCC3)=C(Cl)C2=O)s1 | active: 2.51 µM | 
29 | CCn1c(C)c(C)c2cc(C(=O)NCCN3CCCCCC3)ccc21 | inconclusive: 89.1 µM [inhibitor, single point] | 
30 | COc1ccc(C)cc1-n1nnnc1SCC(=O)NC(=O)NCc1ccco1 | inconclusive: 44.7 µM [inhibitor, partial curve] | 
31 | CC1(C)CC(=O)C2=C(C1)OC1=C(C(=O)CC(C)(C)C1)C2c1ccc(O)c([N+](=O)[O-])c1 |  | inactive: 17.7%
32 | COc1cc2oc3ccccc3c(=O)c2cc1OC | inconclusive: 39.8 µM [inhibitor, single point] | 
33 | COc1cccc(C2C(C(N)=O)=C(C)Nc3ncnn32)c1 (stereo unspecified) |  | inactive: 6.24%
34 | CCOC(=O)c1c(NC(C)=O)c2c3c(sc2n1Cc1cc(C)ccc1C)CCCC3 |  | inactive: 24.9%
35 | Cc1nc([N+](=O)[O-])c(C(=O)OCc2ccccc2Br)n1C |  | inactive: 5.57% [at 57.1 µM]
36 | CC(=O)n1cc(N(C(=O)CCl)c2ccc(C)cc2)c2ccccc21 | active: 2 µM | 
37 | CC(=NNC(=S)N1CC2CCC(CC2)C1)c1cnccn1 | inconclusive: 0.794 µM [inhibitor, full curve, poor fit] | 
38 | C=CCN(C(=O)CSC1=NC(=O)CN1C(C)=O)c1nc(C)c(-c2ccccc2)s1 | inconclusive: 6.31 µM [inhibitor, partial curve, poor fit] | 
39 | CCCc1[nH]nc2c1C(c1cccc(OC)c1)C(C#N)=C(N)O2 (stereo unspecified) | inconclusive: 35.5 µM [inhibitor, single point] | 
40 | Cc1cccn2c(=O)c(C(=O)N3CCN(c4ccccc4)CC3)cnc12 |  | inactive: 10.8% [at 57.1 µM]
41 | Cc1c(C(=O)OCCOC(C)C)[nH]c2c1C(=O)CC(c1ccco1)C2 (stereo unspecified) |  | inactive: -4.83% [at 57.1 µM]
42 | O=C(CSc1nnc(-c2ccco2)n1-c1ccccc1Cl)Nc1cccc(C(=O)O)c1 | inconclusive: 15.8 µM [inhibitor, full curve] | 
43 | COc1cccc(-c2nn(C)c3sc(C(=O)NCc4ccc(OC)cc4OC)cc23)c1 |  | inactive: 45.2%
44 | CC(C)[C@H](NC(=O)[C@@H]1Cc2ccccc2CN1C(=O)OC(C)(C)C)C(=O)NC1CCCC1 | inconclusive: 35.5 µM [inhibitor, full curve] | 
45 | Cc1ccc(OCCCC(=O)Nc2nc3ccccc3[nH]2)cc1 |  | inactive: 22.1% [at 57.1 µM]
46 | Nc1c(C(=O)OCC2CCCO2)c2nc3ccccc3nc2n1C1CCCC1 (stereo unspecified) | inconclusive: 89.1 µM [inhibitor, single point] | 
47 | CC(C)c1cc(-c2nc(-c3ccc(Cl)cc3)no2)n[nH]1 |  | inactive: 9.84% [at 57.1 µM]
48 | COc1cc(NC(=O)c2nn(C)c3c2COc2ccccc2-3)cc(OC)c1OC |  | inactive: -3.5%
49 | Cc1cccc(NC(=O)Cn2c(=O)n(Cc3ccccc3)c(=O)c3oc4ccccc4c32)c1C |  | inactive: 29.7%
50 | O=C1c2cccc(OCC(=O)N3N=C(c4cccs4)CC3c3ccc(F)cc3)c2CCN1Cc1cccnc1 (stereo unspecified) |  | inactive: 11.8%
51 | Cc1ccc(C(=O)C2=C(O)C(=O)N(Cc3ccco3)C2c2cccc(Br)c2)o1 (stereo unspecified) |  | inactive: -6.08% [at 57.1 µM]
52 | COc1ccccc1C(=O)NCCC(=O)N(C)CC(=O)Nc1c(Cl)cccc1Cl |  | inactive: 9.42%

Row | SMILES | Potency | activity change, negative = inhibition
53 | COn1c(=S)[nH]c2ccccc2c1=O | inconclusive: 10 µM [inhibitor, partial curve, poor fit] | 
54 | Cc1nc(-c2ccc(C(=O)Nc3ccc(F)cc3)cc2)cs1 |  | inactive: 25.8%
55 | S=C1NC2(CCCCC2)NN1c1ccccc1 |  | inactive: 23.5%
56 | CCN1CCN(C(=O)c2cc(COc3ccc4ncccc4c3)on2)CC1 |  | inactive: 15% [at 57.1 µM]
57 | O=C(Nc1ccncc1)c1cc(F)cc(F)c1 |  | inactive: 18.3%
58 | NC(Cc1cccc2nsnc12)C(=O)O (stereo unspecified) | inconclusive: 28.2 µM [inhibitor, single point] | 
59 | O=S(=O)(c1ccc2c(c1)OCCO2)N1CCN(CCc2ccccc2)CC1 |  | inactive: 16.4%
60 | Cc1ccc2c(c1)CCCN2C(=O)c1ccoc1C | inconclusive: 12.6 µM [inhibitor, partial curve, poor fit] | 
61 | N#Cc1cc2c([nH]c1=O)CCCC2 | inconclusive: 44.7 µM [inhibitor, partial curve] | 
62 | COc1cc(OC)c2c(C)c(CC(=O)N3CCCCC3)c(=O)oc2c1 | inconclusive: 56.2 µM [inhibitor, partial curve, poor fit] | 
63 | CCOC(=O)N1C=CC=C[C@@H]2[C@@H](N3C(=O)c4ccccc4C3=O)C(=O)N21 | active: 15.8 µM | 
64 | CCN(CC)CCCNc1oc(-c2ccc(OC)cc2)nc1C#N |  | inactive: -4.79% [at 57.1 µM]
65 | N#CC1=C(SCC(=O)c2ccc(Br)cc2)NC2=C(C(=O)CCC2)C1c1ccco1 (stereo unspecified) | inconclusive: 39.8 µM [inhibitor, single point] | 
66 | CCOC(=O)c1c(C)[nH]c(C)c1S(=O)(=O)N(C)CC(=O)Nc1ccc(C)c(F)c1 |  | inactive: 14% [at 57.1 µM]
67 | Oc1ccc2ccccc2c1/C=N/Nc1ccccc1 | inconclusive: 70.8 µM [inhibitor, partial curve] | 
68 | COc1ccc(S(=O)(=O)N2CCCCC2)cc1NCC(=O)Nc1ccc(C)cc1 |  | inactive: 18.8%
69 | Clc1ccc2oc(-c3cccnc3NCc3ccccc3)nc2c1 | inconclusive: 25.1 µM [inhibitor, single point] | 
70 | O=S(=O)(Nc1cccc(-c2cn3cccnc3n2)c1)c1ccc(F)cc1 | inconclusive: 89.1 µM [inhibitor, single point] | 
71 | O=C(CCC(=O)N1CCN(c2ccccn2)CC1)c1cccs1 |  | inactive: 12%
72 | Cc1nc(CCNC(=O)CC2C(=O)NCCN2Cc2ccccc2F)sc1C (stereo unspecified) | inconclusive: 63.1 µM [inhibitor, partial curve, poor fit] | 
73 | CCNC(=S)NNC(=O)c1cc(C2CC2)nc2ccccc12 | inconclusive: 39.8 µM [inhibitor, single point] | 
74 | Cc1nc(N2CCOCC2)c2cc(-c3ccccc3)sc2n1 |  | inactive: 4.12%
75 | O=[N+]([O-])c1ccc(Sc2cc[n+]([O-])c3ccccc23)c([N+](=O)[O-])c1 | inconclusive: 17.8 µM [inhibitor, partial curve, poor fit] | 
76 | N#Cc1c(-c2ccccc2)nc(SCc2nc(N)nc(N3CCCCC3)n2)[nH]c1=O |  | inactive: 18.2% [at 57.1 µM]
